Reference: the supplement of paper PMC10126150
Values marked as one replicate rest on one cluster of the flow cell; about a third of the high ones do not repeat.

The sequences below were run on ATP (assay: switch fluorescence ratio, 500 uM ATP over buffer (Cy3 cluster intensity, sum of 5 cycles each) (fold (ratio)); higher = stronger signal-on switching upon ATP binding; sequences stand for … in TCGTCGGCAGCGTCAGATGTGTATAAGAGACAGTTTTTTTTTTTTTTTTTTTTTTTTT…TC). Details: aptamer strand: ATP DNA aptamer (quencher-CACCTGGGGGAGTATTGCGGAGGAAGG + anchor), 100 nM annealed; ATP concentration: 500 uM; one replicate.
In short: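 Per cluster, summed Cy3 intensity from the target cycles was divided by that from the buffer cycles to give the fluorescence ratio, then averaged per switch-domain sequence. Clusters outside 100-1000 RFU were excluded. The Cy3-labelled switching-strand clusters, on a modified Illumina MiSeq flow-cell, were annealed to 100 nM quencher-labelled ATP aptamer and imaged in selection buffer, then after 15 min with 500 uM ATP at 22 °C, for five cycles with NaOH stripping and re-annealing between them.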
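Also: ATP exposure 15 min at 22 °C before imaging.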

Sequence	switch fluorescence ratio
ATGGGCGTGC	1.03
TTATTACCCT	1.04
ATTGGCAAGC	1.16
GAAGATCTGT	0.989
AAAGTGACGG	1.04
ACATGCTGCT	0.962
TCATCGATCC	1.02
CGGCGGACCC	1.27
CGGGGTTCAA	0.939
GGATGATGTA	0.944
CTGAGTTCG	1.02
CCGGTCCTAG	1.06
ATAGGTCCAA	1.04
ACCAGATCCG	1.11
ATAGTTGAGA	0.97
CGGGTCCCGA	1.02
GACAGCTGGG	1.01
AGCGACTCGT	1
AAAGCCAGAT	0.998
CCTGAAATCC	1.36
CGGCCCGCCT	1.01
TTGTGCCTTT	1.04

Sequence	switch fluorescence ratio
GCCAAGAATA	1.1
AAAGTACCG	1.03
CCGGATGGGG	0.991
TATGTGAAAT	0.991
GCGCAGTTGC	1.74
TCTGGGTTT	0.965
TCAAAGGTTG	1.05
TAATGTGTCA	0.997
CGAACTGACC	1.25
ATTATGGTTG	1
TCAAGCCGAC	1.05
TGTCCCCGC	1.42
TCGCGCTCCA	1.54
CCAGAGTTCC	1.02
GGAAAAACTT	1.05
GGATGTAAAA	1
GTGGGGACCA	0.989
AATAGCGACG	0.967
TTTTGATTCG	1.03
ACGGACGAGG	1.07
GCGTCTCCAT	1
GGATGGTCGC	0.979

Sequence	switch fluorescence ratio
GATGGTAACG	0.983
TTGGACTTCT	1.02
GGGAACTTGT	1.05
TTTTATCCTG	0.972
CACTCCAATC	1.54
TCAGGCCACT	1.07
TCCATCATAA	0.975
CTAGTAGGA	0.985
AAATCACCCC	1.12
GTAGTGAGGC	1.07
ACATTCCGTA	1.06
AGTAGATTAT	1.02
GTACTGGCGT	1.05
CCGAGTTTGG	1.04
ACGTGGTACC	1.04
GGTTAAAAGT	1.02
CATTAAAAGC	1.04
AAGATGGGTT	0.992
ATATGGCTAA	1.03
AGGAATGCGA	1.22
GCGCGGGGAC	1.07
TCTCAAATGC	1.54

Sequence	switch fluorescence ratio
TAGTGCGAAG	1.02
CCCCGCGGCG	2.09
TCGGCTGGCA	1.02
TGAATCTAGC	0.978
TGTTAACTCG	0.953
TTCCGTGCTC	1.13
GAAAATTTGT	0.98
GTACGACTTA	0.999
CGATCGACGT	1.04
AAAGCCTAAC	1.18
CTGGAAATCT	1.09
TCAGTGAGGT	0.997
CCTCATGGCC	1.14
CAGGTGAGTA	1.19
TTGTTTTGAC	1.04
TACACACAAT	1.12
CAGGGCAACT	0.993
CATAACATCC	0.995
GGATTGTTAG	1.01
